Out of some 310,000 compounds screened, about 14,000 (4.5%) showed an effect of 50% or more. Effects have a minus sign here. This is one part of the list.
What follows are molecules tested against human ether-à-go-go-related gene (hERG) potassium channel (human, UniProt Q12809) (assay: primary screen, population patch clamp on CHO cells stably expressing hERG).
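Also: peak tail current of the secondary pulse compared with the same well before compound.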

human ether-à-go-go-related gene (hERG) potassium channel, sequence (Q12809 whole entry, looked up): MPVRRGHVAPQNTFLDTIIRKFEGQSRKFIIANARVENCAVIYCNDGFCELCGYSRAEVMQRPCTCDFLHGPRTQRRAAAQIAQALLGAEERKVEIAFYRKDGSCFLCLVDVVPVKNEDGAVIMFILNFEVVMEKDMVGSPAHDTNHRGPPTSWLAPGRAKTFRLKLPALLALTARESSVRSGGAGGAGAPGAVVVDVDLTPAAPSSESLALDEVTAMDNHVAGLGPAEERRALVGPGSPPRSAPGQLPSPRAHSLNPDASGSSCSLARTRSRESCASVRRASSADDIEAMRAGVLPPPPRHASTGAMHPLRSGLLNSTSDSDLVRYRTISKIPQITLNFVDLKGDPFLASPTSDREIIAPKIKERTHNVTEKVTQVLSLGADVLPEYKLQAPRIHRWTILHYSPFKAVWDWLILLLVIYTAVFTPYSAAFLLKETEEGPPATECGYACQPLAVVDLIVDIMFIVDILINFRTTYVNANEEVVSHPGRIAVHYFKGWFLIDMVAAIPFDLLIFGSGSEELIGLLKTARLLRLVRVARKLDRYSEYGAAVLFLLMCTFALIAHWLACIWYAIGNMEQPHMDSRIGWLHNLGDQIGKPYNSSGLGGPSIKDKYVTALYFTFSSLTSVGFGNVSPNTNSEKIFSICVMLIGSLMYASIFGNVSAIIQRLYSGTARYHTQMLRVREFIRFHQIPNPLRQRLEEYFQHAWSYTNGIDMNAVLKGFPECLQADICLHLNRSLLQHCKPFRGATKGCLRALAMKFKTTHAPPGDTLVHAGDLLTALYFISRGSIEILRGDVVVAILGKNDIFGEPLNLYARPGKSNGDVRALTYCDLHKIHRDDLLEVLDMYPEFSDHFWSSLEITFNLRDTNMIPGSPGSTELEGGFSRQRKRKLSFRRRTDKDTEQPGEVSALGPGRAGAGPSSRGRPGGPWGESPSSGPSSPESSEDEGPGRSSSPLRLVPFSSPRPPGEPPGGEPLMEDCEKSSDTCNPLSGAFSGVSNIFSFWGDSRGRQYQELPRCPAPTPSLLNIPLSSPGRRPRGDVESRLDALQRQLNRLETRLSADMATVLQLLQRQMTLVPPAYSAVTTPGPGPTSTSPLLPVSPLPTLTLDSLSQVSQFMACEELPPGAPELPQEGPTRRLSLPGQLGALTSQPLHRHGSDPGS

| Compound | hERG current change (%, negative = inhibition) at 10uM [%] |
| --- | --- |
| N#CC(Cc1cccc(CC(C#N)(c2ccccc2)c2ccccc2)c1)(c1ccccc1)c1ccccc1 | 18.7 |
| CCN(CC)CCn1c(C)nc2ccccc21.Cl | -9.07 |
| O=C(COc1ccc(Cl)cc1)NCCSc1ccccc1 | -18 |
| COC(=O)c1sccc1NC(=O)CSc1nnnn1-c1ccccc1F | 5.57 |
| Cc1cc(=O)oc2cc(OCC(=O)N3CC[C@@]4(O)CCCC[C@H]4C3)c(Cl)cc12 | 0.0429 |
| NC(=O)c1ccccc1OCC(=O)c1ccc(Cl)cc1 | 26.5 |
| COc1ccccc1N1CCN(CCN2C(=O)CC(=C3c4ccccc4-c4ccccc43)C2=O)CC1.Cl | 0.408 |
| COc1ccccc1C1/C(=C(/O)c2ccc(C)cc2)C(=O)C(=O)N1CC(C)O (stereo not shown) | 13.1 |
| CC(C)CC(=O)N1CCN(CC2CC=CCC2)CC1.O=C(O)C(=O)O (stereo not shown) | 10.6 |
| CCCNC(=O)c1c(Cl)cnn1-c1ccc(C)cc1 | 5.65 |
| O=C(CCC(=O)Nc1ccc(F)cc1)N/N=C/c1ccccc1O | -1.27 |
| O=C(c1ccco1)N1CCN(c2cc(=O)n(-c3ccc(Cl)cc3)c(=O)[nH]2)CC1 | -4.63 |
| CCCNC(=O)c1ccc2c(=O)c(O)c(-c3ccsc3)[nH]c2c1 | -3.69 |
| CCn1c(SCC(=O)N2CCCCCC2)nc2c(c1=O)SCC2 | -5.09 |
| Cc1ccc(OC(=O)C2CSC3(C)CCC(=O)N23)c(Br)c1 (stereo not shown) | -17.4 |
| Cc1ccc(C(=O)OC(C)C(=O)NCc2ccc3c(c2)OCO3)cc1S(=O)(=O)N1CCOCC1 (stereo not shown) | 10.7 |
| CC(OC(=O)c1ccc(Cl)c([N+](=O)[O-])c1)C(=O)N1CCN(Cc2ccccc2)CC1 (stereo not shown) | -71.1 |
| CC(NC(=O)c1ccccc1)C(=O)OCn1nnc2ccccc2c1=O (stereo not shown) | -2.94 |
| COc1cccc(CNC(=O)CCC2CCCN(c3cc(C)nc(N)n3)C2)c1 (stereo not shown) | -63.5 |
| COc1ccc(CCNC(=O)c2cc3c(=O)n4ccccc4nc3n(CCN3CCOCC3)c2=N)cc1 | -77.8 |
| COc1ccc(OC)c(Cc2nnc(CCC(=O)N3CCCCC3c3nccs3)o2)c1 (stereo not shown) | -8.55 |
| COc1ccc(N2C(=O)CC(N3CC=C(c4ccccc4)CC3)C2=O)cc1 (stereo not shown) | -12.5 |

| Compound | hERG current change (%, negative = inhibition) at 10uM [%] |
| --- | --- |
| CC1(O)CC(c2ccc(Cl)cc2)=NN1C(=O)c1ccc(Cl)cc1 (stereo not shown) | 7.39 |
| Cc1ccc2cn[nH]c2c1NC(N)=S | 6.25 |
| CC(=O)Nc1cccc(C(=O)OCC(=O)NCc2cc(C)c(O)c(C)c2)c1 | -34.2 |
| COc1ccc(NC(=O)c2ccccc2[N+](=O)[O-])cc1 | 9.48 |
| CSc1ccc(CN2CCSCC2)cc1 | 2.79 |
| C=CCN1C(=O)C(O)(CC(=O)c2ccccn2)c2ccccc21 (stereo not shown) | 4.61 |
| O=C(CCSCCc1ccccn1)Nc1ccc(Cc2ccncc2)cc1 | -27.8 |
| CN(CC(=O)Nc1c(Cl)cccc1Cl)C(=O)C1CCN(C(=O)Nc2ccccc2)CC1 | 11.5 |
| CC(C)(C)c1ccc2c(c1)OC(C(=O)N/N=C\c1ccccn1)CO2 (stereo not shown) | -31 |
| Cc1cc(NC(=O)CSc2nnc(Cn3c(=O)sc4ccccc43)n2-c2ccccc2C)no1 | 2.54 |
| COc1ccc(-c2cc(C(=O)N3CCN(c4ccccc4O)CC3)c3ccccc3n2)cc1 | 8.88 |
| O=C(c1ccco1)c1cn(Cc2ccc(Cl)cc2)c2ccccc12 | 15.9 |
| CN(CC(=O)Nc1cccc(S(=O)(=O)NC2=NCCC2)c1)Cc1ccccc1Cl | -5.24 |
| CCOC(=O)COc1cccc2c(=O)n(CC(=O)NCc3ccccc3)ccc12 | 4.26 |
| CCOC(=O)C1=C(C)NC(=O)CC1c1cc(OC)c(OC)cc1Br (stereo not shown) | 4.37 |
| COc1ccc(/C=C/C(=O)OCc2csc(-c3ccccc3)n2)cc1OC | 17.4 |
| Fc1ccc(CNCCc2ccccc2)cc1.O=C(O)C(=O)O | -18.2 |
| Cc1[nH]c(=O)c(C#N)c(C)c1CSc1ncccn1 | -10.2 |
| CCN(CC)S(=O)(=O)c1ccc(N2CCOCC2)c(NC(=O)c2ccc(N3CCCC3=O)cc2)c1 | -10.3 |
| O=C(c1ccccc1)c1ccc(COC(=O)c2cnccn2)cc1 | -1.03 |
| Cc1ccccc1C1=NC(C(F)(F)F)(C(F)(F)F)c2c(n(-c3ccc(F)cc3)c(=O)[nH]c2=O)N1 | 12.5 |
| COc1ccc(-c2nnn(CC(=O)N(CC(=O)NC3CCCC3)Cc3ccco3)n2)cc1OC | -18.1 |

| Compound | hERG current change (%, negative = inhibition) at 10uM [%] |
| --- | --- |
| O=C(CSc1nc2cc(Cl)ccc2s1)Nc1cccc(S(=O)(=O)N2CCOCC2)c1 | -10.7 |
| O=C(Nc1ccccc1)c1ccc(CN2CCC(Cc3ccccc3)CC2)cc1 | 14.7 |
| COc1ccc(NC(=O)CCS(=O)(=O)c2cc3c(cc2C)NC(=O)CO3)cc1 | -23.4 |
| CCn1c(=S)sc2c(=O)n(CC(=O)Nc3ccc(OC)c(Cl)c3)c(C)nc21 | 18.7 |
| O=C(Nc1ccc(Br)cc1)N1CCCCCC1 | -6.79 |
| CCC(C)NC(=O)CSc1nc2ccccc2c(=O)n1-c1c(C)n(C)n(-c2ccccc2)c1=O (stereo not shown) | 1.66 |
| CC1CC(C)CN(c2oc(Cc3ccccc3)nc2C#N)C1 (stereo not shown) | -2.37 |
| CC(=O)Nc1c(Cl)cc([N+](=O)[O-])c2ccccc12 | -12 |
| COCCOc1nc2c(c(=O)n(C)c(=O)n2C)n1CCc1ccccc1 | -3.94 |
| Cc1c(NC(=O)Nc2ccccc2[N+](=O)[O-])c(=O)n(-c2ccccc2)n1C | 19.3 |
| COc1ccc2c(c1OC)C(=O)OC2Nc1nc(-c2ccc([N+](=O)[O-])cc2)cs1 (stereo not shown) | 14.5 |
| O=C(Nc1nnc(-c2ccc(Cl)cc2)o1)C1CCCCC1 | 12.4 |
| FC(F)(F)c1ccc(C2[C@H]3CN(Cc4cccnc4)[C@H](c4ccccc4)C34CC2(c2cccnc2)C4)cc1 (stereo partly shown) | 2.05 |
| NC(=O)C1(N2CCCCC2)CCN(C2CC(=O)N(Cc3cccs3)C2=O)CC1 (stereo not shown) | 6.12 |
| Cc1ccc(C(=O)NCCN2CCOCC2)cc1Cl | -17.7 |
| Cc1cccc(C)c1NC(=O)CSc1nnc(-c2ccoc2C)n1C | 6.02 |
| O=C(Nc1ccccc1Cl)Nn1cnnc1 | 18.1 |
| Cc1c(Br)c(=O)oc2cc(OCC(=O)N3C[C@H]4C[C@@H](C3)c3cccc(=O)n3C4)ccc12 | -19.4 |
| O=C(c1ccco1)N1CCCN(Cc2nc(-c3ccc4c(c3)OCO4)no2)CC1 | -46.1 |
| COc1ccc(CCNC(=O)C2CC(c3cccc(F)c3)=NO2)cc1 (stereo not shown) | 6.13 |
| c1coc(-c2nc(-c3ccncc3)no2)c1 | -1.13 |
| Cc1cc(C)cc(OC(C)C(=O)Nc2ccc3c(c2)n(C)c(=O)n3C)c1 (stereo not shown) | -4.37 |

| Compound | hERG current change (%, negative = inhibition) at 10uM [%] |
| --- | --- |
| COc1ccc(CC(=O)c2ccc(OC3OC(CO)C(O)C(O)C3O)cc2O)cc1 (stereo not shown) | 14.2 |
| Cc1noc(C)c1COC(=O)c1ccccc1Sc1ccccc1C#N | -8.67 |
| c1ccc(-c2noc(C34CC5CC(CC(C5)C3)C4)n2)nc1 | -11.9 |
| CC(CCc1ccccc1)NC(=O)c1ccc(NC(=O)c2cccc(Br)c2)cc1 (stereo not shown) | 11.9 |
| CCOC(=O)CC(C)(C)/C(C)=N/Nc1ccc([N+](=O)[O-])cc1[N+](=O)[O-] | -24.5 |
| Cc1cccc(OCC(=O)Nc2ccncc2)c1C | 2 |
| CC(=O)Nc1cccc(C(=O)OCc2ccc(C(=O)Oc3ccc(Cl)cc3)cc2)c1 | 5.09 |
| Cc1ccc(NC(=O)COC(=O)Cc2cccs2)c(Br)c1 | 15.2 |
| FC(F)(F)c1cc(C(F)(F)F)c2ccc(N3CCN(c4ncccn4)CC3)nc2n1 | -28.5 |
| CCOc1cc(CNC)ccc1OCC(=O)NC(C)(C)C.Cl | 18.4 |
| O=C(COC(=O)Cc1ccc(Br)cc1)NC12CC3CC(CC(C3)C1)C2 | 5.98 |
| CCCCCCn1c(NCC)nc2c1c(=O)[nH]c(=O)n2C | -14.7 |
| Cc1ccc(CN2CC(C(=O)N3CCN(c4ccccc4Cl)CC3)CC2=O)cc1 (stereo not shown) | -46.8 |
| CCOCCCN(Cc1ccco1)C(=O)c1cc2c(=O)[nH]c3ccc(C)cc3c2s1 | -10.5 |
| CCOC(=O)N=S(=O)(Oc1ccc([N+](=O)[O-])cc1)c1ccccc1 (stereo not shown) | -32.6 |
| CCC(=O)c1c[nH]c(C(=O)NCCCN2CCOCC2)c1 | 5.59 |
| COc1ccc(S(=O)(=O)NCCC(=O)N2CCCC2)cc1N(C)S(C)(=O)=O | 15.3 |
| CCCCCCCC(=O)N/N=C/c1ccco1 | -12.8 |
| COc1ccc(N(C)S(=O)(=O)c2cccc(C(=O)N3CCN(S(=O)(=O)c4ccc(C)cc4)CC3)c2)cc1 | -8 |
